Source: PubChem BioAssay AID504333 (National Center for Advancing Translational Sciences (NCATS), 2011)
Out of some 360,000 compounds screened, about 16,000 (4.4%) were called active. Inconclusive means that the source gave no clear call. Such entries were picked first, then a sample of the others. The call rests on the fitted dose curve; in most records, active means well fitted inhibition curve with a large enough effect; inconclusive means small, poorly fitted or top-dose-only effect; inactive means no such curve, though single readings can be large or run the other way. Where the call is inconclusive, the potency comes from a doubtful curve fit.

Target: Bromodomain adjacent to zinc finger domain protein 2B (Homo sapiens) (UniProt Q9UIF8)
Test: qHTS Assay for Inhibitors of BAZ2B; further: nearly all actives have a fitted effect of over 60% in size
Conditions: AlphaScreen BAZ2B-H3K14Ac peptide displacement; series mostly up to 114 µM
How it was run: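 Complex of BAZ2B and biotin-H3K14Ac (50 nM apiece) forms over 30 min at RT, then faces library compounds up to 110 uM for another 30 min; AlphaScreen beads added, 20 min dark incubation, luminescence read.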
Potency means the concentration at half of the fitted maximal effect; tags describe the fitted curve by direction and shape.

Chain of UniProt Q9UIF8 (Q9UIF8 whole entry, looked up, the tested form may be a part): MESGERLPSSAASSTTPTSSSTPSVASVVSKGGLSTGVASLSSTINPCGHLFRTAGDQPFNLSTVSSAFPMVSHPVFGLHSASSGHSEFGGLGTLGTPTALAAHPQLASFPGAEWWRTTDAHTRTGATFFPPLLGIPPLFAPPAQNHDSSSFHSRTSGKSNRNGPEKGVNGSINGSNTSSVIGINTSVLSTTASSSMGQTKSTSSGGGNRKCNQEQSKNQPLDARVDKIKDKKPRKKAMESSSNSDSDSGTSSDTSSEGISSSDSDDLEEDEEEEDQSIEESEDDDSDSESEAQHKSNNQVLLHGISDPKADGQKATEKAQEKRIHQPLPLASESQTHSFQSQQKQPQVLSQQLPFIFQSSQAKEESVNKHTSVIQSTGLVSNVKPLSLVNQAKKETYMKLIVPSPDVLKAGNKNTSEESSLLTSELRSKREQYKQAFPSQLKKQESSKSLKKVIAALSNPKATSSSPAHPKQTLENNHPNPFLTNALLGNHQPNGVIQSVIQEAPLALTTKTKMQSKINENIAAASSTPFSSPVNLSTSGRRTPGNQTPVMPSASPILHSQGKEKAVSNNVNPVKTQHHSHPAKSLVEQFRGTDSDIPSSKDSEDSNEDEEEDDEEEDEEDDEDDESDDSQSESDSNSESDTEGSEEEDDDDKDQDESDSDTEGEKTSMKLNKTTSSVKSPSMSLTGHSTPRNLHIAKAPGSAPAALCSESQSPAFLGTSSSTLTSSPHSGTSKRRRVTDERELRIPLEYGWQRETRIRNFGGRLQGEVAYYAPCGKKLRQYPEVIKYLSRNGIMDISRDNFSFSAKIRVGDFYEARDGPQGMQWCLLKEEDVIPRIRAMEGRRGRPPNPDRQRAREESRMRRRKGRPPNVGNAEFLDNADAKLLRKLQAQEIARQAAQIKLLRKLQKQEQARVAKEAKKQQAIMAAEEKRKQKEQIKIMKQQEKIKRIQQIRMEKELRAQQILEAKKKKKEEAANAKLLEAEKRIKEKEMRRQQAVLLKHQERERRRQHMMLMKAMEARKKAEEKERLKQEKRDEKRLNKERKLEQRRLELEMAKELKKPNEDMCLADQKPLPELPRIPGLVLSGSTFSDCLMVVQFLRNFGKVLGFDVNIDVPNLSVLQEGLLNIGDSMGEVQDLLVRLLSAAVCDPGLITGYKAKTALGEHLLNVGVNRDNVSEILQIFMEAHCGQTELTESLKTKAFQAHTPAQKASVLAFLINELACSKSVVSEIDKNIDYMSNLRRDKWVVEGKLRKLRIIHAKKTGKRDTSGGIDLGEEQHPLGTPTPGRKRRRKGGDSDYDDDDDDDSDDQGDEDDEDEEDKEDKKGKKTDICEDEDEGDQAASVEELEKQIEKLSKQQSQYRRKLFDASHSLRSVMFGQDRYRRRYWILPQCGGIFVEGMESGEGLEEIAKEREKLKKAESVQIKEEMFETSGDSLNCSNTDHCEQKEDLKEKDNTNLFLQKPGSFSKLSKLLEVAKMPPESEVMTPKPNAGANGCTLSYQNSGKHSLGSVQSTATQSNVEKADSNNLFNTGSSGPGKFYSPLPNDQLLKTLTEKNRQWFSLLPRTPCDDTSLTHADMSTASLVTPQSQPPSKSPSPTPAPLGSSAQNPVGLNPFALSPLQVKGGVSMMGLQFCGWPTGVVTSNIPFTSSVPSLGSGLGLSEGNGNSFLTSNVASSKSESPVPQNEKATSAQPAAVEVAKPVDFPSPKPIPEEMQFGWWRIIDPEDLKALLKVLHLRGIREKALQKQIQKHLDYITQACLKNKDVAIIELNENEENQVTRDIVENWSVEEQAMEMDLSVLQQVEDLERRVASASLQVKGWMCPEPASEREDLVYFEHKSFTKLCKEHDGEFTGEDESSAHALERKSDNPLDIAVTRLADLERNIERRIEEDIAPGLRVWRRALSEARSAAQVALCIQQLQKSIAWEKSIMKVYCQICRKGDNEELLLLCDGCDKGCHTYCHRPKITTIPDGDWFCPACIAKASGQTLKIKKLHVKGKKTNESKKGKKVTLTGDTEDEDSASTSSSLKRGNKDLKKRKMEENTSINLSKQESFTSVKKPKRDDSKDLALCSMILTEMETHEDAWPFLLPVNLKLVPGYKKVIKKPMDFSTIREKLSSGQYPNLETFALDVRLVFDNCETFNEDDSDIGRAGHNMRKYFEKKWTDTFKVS

Question: For `COc1ccc(/C=C/CN2CCCC(CO)(Cc3cccc(Cl)c3)C2)cc1` (stereo not drawn), which Potency is on record?
Answer: inconclusive: 79.4 µM [inhibitor, partial curve]

Question: With `O=C(O)c1cccc(N/N=C/c2cc(Br)cc(Br)c2O)c1` as the molecule, how does the Potency read?
Answer: inconclusive: 50.1 µM [inhibitor, partial curve]

Question: With `COCCn1c(C)cc(/C=C2/NC(=O)N(c3cccc(Cl)c3)C2=O)c1C` as the molecule, how does the Potency read?
Answer: inactive

Question: Which Potency does the source give for `COc1ccc(CCc2cc(OC)cc(=O)o2)cc1` here?
Answer: inactive

Question: For `CCOc1ccc(-c2csc(Cn3c(CN4CCN(C)CC4)nc4ccccc4c3=O)n2)cc1`, which Potency is on record?
Answer: inconclusive: 89.1 µM [inhibitor, single point]

Question: `COc1ccc(CNC(=S)N/N=C(/C)c2ccccc2)cc1` was tested. Which Potency did it give?
Answer: inconclusive: 28.2 µM [inhibitor, partial curve]

Question: For `COc1ccc(Nc2nc(N)nc(CSC(=S)N3CCN(c4ccccc4)CC3)n2)cc1`, which Potency is on record?
Answer: inconclusive: 25.1 µM [inhibitor, full curve, poor fit]

Question: `CCOC(=O)C1=C(Nc2ccc(OC)cc2)OCC1=O` was tested. Which Potency did it give?
Answer: inactive

Question: For `O=C(c1ccc(Cl)cc1[N+](=O)[O-])N(Cc1ccccc1)Cc1ccccc1`, which Potency is on record?
Answer: inconclusive: 39.8 µM [inhibitor, full curve, poor fit]

Question: For `CC1Cc2ccccc2N1S(=O)(=O)c1cccc(C(=O)NCCCn2ccnc2)c1` (stereo not drawn), which Potency is on record?
Answer: inconclusive: 50.1 µM [inhibitor, partial curve]

Question: For `CCN(CC)c1ccc(/C=N/NC(=O)c2ccco2)c(O)c1`, which Potency is on record?
Answer: inconclusive: 89.1 µM [inhibitor, single point]

Question: How did the Potency turn out when `COc1ccc2c(c1)CC/C(=C\c1ccc(OC)c(Cn3nc(C)cc3C)c1)C2=O` was run?
Answer: inconclusive: 70.8 µM [inhibitor, single point]

Question: Which Potency does the source give for `O=C(c1cccc(Cl)c1)C1CCCN(C(=O)c2ccoc2)C1` (stereo not drawn) here?
Answer: inactive

Question: With `CC1=CC2=NC(=O)/C(=C/c3cccn3Cc3ccccc3)C(=N)N2O1` as the molecule, how does the Potency read?
Answer: inactive

Question: Which Potency does the source give for `N=C1c2ccccc2CN1c1ccc(N2CCOCC2)c(S(=O)(=O)Nc2ccc(Cl)cc2)c1` here?
Answer: inconclusive: 50.1 µM [inhibitor, partial curve]

Question: Which Potency does the source give for `Cc1cccc(-n2ncc3c(NCCCn4ccnc4)ncnc32)c1` here?
Answer: inconclusive: 89.1 µM [inhibitor, single point]

Question: Which Potency does the source give for `Cn1c(=O)[nH]c(=O)c2c1[nH]c(=S)n2CCCc1ccccc1` here?
Answer: active: 25.1 µM

Question: `COc1ccc(Cn2c(O)c(/C=N/NC(=O)c3cccnc3)c3ccccc3c2=O)cc1` was tested. Which Potency did it give?
Answer: inconclusive: 79.4 µM [inhibitor, single point]

Question: `CCOC(=O)C1CCCN(S(=O)(=O)Cc2ccccc2Cl)C1` (stereo not drawn) was tested. Which Potency did it give?
Answer: inactive

Question: `c1ccc2c(c1)nc(N1CCOCC1)c1ccccc12` was tested. Which Potency did it give?
Answer: inactive

Question: For `COc1ccccc1N(O)C1CC(=O)N(c2ccc(Br)cc2)C1=O` (stereo not drawn), which Potency is on record?
Answer: inconclusive: 89.1 µM [inhibitor, single point]

Question: `COc1ccc(CN2CCCCC2c2cccnc2)c(OC)c1C` (stereo not drawn) was tested. Which Potency did it give?
Answer: inconclusive: 89.1 µM [inhibitor, single point]

Question: `O=C1NC(=S)N/C1=C/c1cccnc1` was tested. Which Potency did it give?
Answer: inactive

Question: Which Potency does the source give for `CCc1ccccc1NC(=O)C1(S(=O)(=O)c2ccc(C)cc2)CC1` here?
Answer: inactive

Question: How did the Potency turn out when `COc1cc(C2c3c(oc4ccccc4c3=O)C(=O)N2Cc2ccco2)ccc1O` (stereo not drawn) was run?
Answer: inconclusive: 89.1 µM [inhibitor, single point]

Question: `CCOC(=O)c1c(-c2ccc(C)c(C)c2)csc1NC(=O)C1CC=CCC1C(=O)O` (stereo not drawn) was tested. Which Potency did it give?
Answer: inactive

Question: `CC(C)(C)C1=NN=C2c3ccccc3C(=O)C21` (stereo not drawn) was tested. Which Potency did it give?
Answer: inactive

Question: Which Potency does the source give for `C=CCn1c(SCC(=O)Nc2ccccc2C)nnc1-c1ccncc1` here?
Answer: inactive

Question: For `CSc1ccc(-c2nc(CN3CCCCC3c3cccnc3)c(C)o2)cc1` (stereo not drawn), which Potency is on record?
Answer: inconclusive: 25.1 µM [inhibitor, full curve]

Question: Which Potency does the source give for `CC1=CC(C)(C)Nc2ccc(OC(=O)CN3C(=O)c4ccccc4C3=O)cc21` here?
Answer: active: 17.8 µM

Question: `CCCn1c(CN2CCN(C(=O)c3ccco3)CC2)nc2cc(S(=O)(=O)N(C)C)ccc21` was tested. Which Potency did it give?
Answer: inactive

Question: How did the Potency turn out when `Cc1cc(NS(=O)(=O)c2ccc(NC(NC(=O)C(C(F)(F)F)C(F)(F)F)(C(F)(F)F)C(F)(F)F)cc2)no1` was run?
Answer: inconclusive: 89.1 µM [inhibitor, single point]

Question: For `O=C(COC(=O)c1n[nH]c2ccccc12)NC(=O)NCc1ccco1`, which Potency is on record?
Answer: inconclusive: 50.1 µM [inhibitor, partial curve]

Question: Which Potency does the source give for `Cc1nc(SCc2ccc(C(=O)O)cc2)c2c(C)c(C)sc2n1` here?
Answer: inconclusive: 79.4 µM [inhibitor, single point]

Question: `CS(=O)(=O)N1CCc2cc(C(=O)Nc3cccc(F)c3)ccc21` was tested. Which Potency did it give?
Answer: inactive

Question: For `CC(C)(C)c1ccc(CN2N=C(/C=C/c3ccccc3)CCC2=O)cc1`, which Potency is on record?
Answer: inactive

Question: With `O=C(COc1ccc2ccccc2c1)NC1=NCCS1` as the molecule, how does the Potency read?
Answer: inconclusive: 100 µM [inhibitor, single point]

Question: For `Cc1ccc(C(=O)Nc2nc(-c3ccccc3)ns2)cc1`, which Potency is on record?
Answer: inactive

Question: `CCOc1ccc(CNc2ccc(CNc3ncn[nH]3)cc2)cc1` was tested. Which Potency did it give?
Answer: inconclusive: 44.7 µM [inhibitor, partial curve]

Question: With `Cc1cccc(OCC(=O)N(C)c2c(N)n(Cc3ccccc3)c(=O)[nH]c2=O)c1C` as the molecule, how does the Potency read?
Answer: inactive

Question: Which Potency does the source give for `Cc1cc(NC(=O)CSc2nnc(-c3ccoc3C)o2)no1` here?
Answer: inconclusive: 79.4 µM [inhibitor, single point]

Question: With `CCN(CC)c1ccc(/C=N/NC(=O)CC(C)C)cc1` as the molecule, how does the Potency read?
Answer: inconclusive: 89.1 µM [inhibitor, single point]

Question: With `COC(=O)c1c(NC(=O)/C=C/C(=O)O)sc(C)c1-c1ccc(C)c(C)c1` as the molecule, how does the Potency read?
Answer: inactive

Question: `CCCCSc1nc(O)c(C2OC(=O)c3c2ccc(OC)c3OC)c(=O)n1-c1ccccc1` (stereo not drawn) was tested. Which Potency did it give?
Answer: inconclusive: 89.1 µM [inhibitor, single point]

Question: `NC(=O)c1oc2ccccc2c1NC(=O)c1nc2ccccc2s1` was tested. Which Potency did it give?
Answer: inconclusive: 79.4 µM [inhibitor, single point]

Question: How did the Potency turn out when `Cc1ccc(SCCNC(=S)Nc2ccc(C)c(C)c2)cc1` was run?
Answer: inconclusive: 89.1 µM [inhibitor, single point]

Question: How did the Potency turn out when `Cc1ccc(/C=C2/C(=O)c3ccc(C(=O)O)cc3C2=O)o1` was run?
Answer: active: 11.2 µM

Question: For `COc1cccc(=O)c2c(C)oc(C)c12`, which Potency is on record?
Answer: inconclusive: 89.1 µM [inhibitor, single point]
